# Test results from the RNAGym collection of RNA variant scans (doi:10.7554/elife.90254).
# The source gives no read counts; variants with many changes may rest on few reads.
# B1: LINE1-mini (parent)
# chain: GGCAGAGCUCAACACAGCGUGGCAAAGUGGCUGUGGCUAGACUGCC
# Variants of: B1
# Assay: self-cleavage, relative activity (ratio to wild type); higher = more cleavage; in vitro, sequencing; the parent is a self-cleaving ribozyme
row,Variant,self-cleavage
1,GGAAGAGCUCAACACUGACUGGCAAAGUGGCUGUGUCUAGACUGCC [C3A A16U C18A G19C G36U],0.49
2,GGAAGAGCUCAACACUGCGUGGUAAAGUGGAUGUGGCUACACUGCC [C3A A16U C23U C31A G40C],0.06
3,GGAAGAGCUCAACACUUCGUAGCAAAGUGGAUGUGGCCAGACUGCC [C3A A16U G17U G21A C31A U38C],0.14
4,GGAAGAGCUCAACACUGCGUUGCAAAGUGGCUGUGGCUAGACUGCC [C3A A16U G21U],0.07
5,GGAAGAGCUCAACACAGCGUGGCCAAGUGGCUGUGGCUGGACUGCC [C3A A24C A39G],0.2
6,GGAAGAGCUCAACACAGCGUGGCGAAGUGGCUGUGGCUGGACUGCG [C3A A24G A39G C46G],0.04
7,GGAAGAGCUCAACACAGCGUGGCGAAGUGGCUGUGGCUAGCCUUCC [C3A A24G A41C G44U],0.03
8,GGAAGAGCUCAACACAGCGUGGCGAAGUGGAAGUGGCUAGACUGCG [C3A A24G C31A U32A C46G],0.5
9,GGAAGAGCUCAACACAGCGUGGCGAAGUGGUUGUGGUUAGACUGCA [C3A A24G C31U C37U C46A],0.07
10,GGAAGAGCUCAACACAGCGUGGCGAAGUGGCUGUGGCUAGACUGCU [C3A A24G C46U],0.61
11,GGAAGAGCUCAACACAGCGUGGCUACGUGGCUGUGGCUAGACUGCC [C3A A24U A26C],1.12
12,GGAAGAGCUCAACACAGCGUGGCUAAGUGGCUGUGGCUAGACUGGC [C3A A24U C45G],0.19
13,GGAAGAGCUCAACACAGCGUGGCUAAAUGGCUGCGGCUAGACUGCC [C3A A24U G27A U34C],1.13
14,GGAAGAGCUCAACACAGCGUGGCUAACUGGCUGUGGCAAGACUGCC [C3A A24U G27C U38A],1.71
15,GGAAGAGCUCAACACAGCGUGGCUAAGUCGCUGUGCCGAGAAUGCC [C3A A24U G29C G36C U38G C42A],0.02
16,GGAAGAGCUCAACACAGCGUGGCACAAUAGCUGUGGCUAGACUGCC [C3A A25C G27A G29A],0.31
17,GGAAGAGCUCAACACAGCGUGGCAGAGUGUCUGUGGCUAGACUGCC [C3A A25G G30U],0.19
18,GGAAGAGCUCAACACAGCGUGGCAGAGAGGCUGUGGCUAGUCUGCC [C3A A25G U28A A41U],0.01
19,GGAAGAGCUCAACACAGCGUGGCAUAGUGGCUGUUGCUGGACAGCC [C3A A25U G35U A39G U43A],0.27

row,Variant,self-cleavage
1,GGAAGAGCUCAACACAGCGUGGCAUAGUGGCUGUGUCUAGACUGCC [C3A A25U G36U],0.45
2,GGAAGAGCUCAACACAGCGUGGCAUAGUGGCUGGGGCUAGACUGCC [C3A A25U U34G],0.17
3,GGAAGAGCUCAACACAGCGUGGCAACGUGGCUGUGGCUAGUCUGCA [C3A A26C A41U C46A],0.44
4,GGAAGAGCUCAACACAGCGUGGCAACGUGGGUGAGGCUAGACUGCC [C3A A26C C31G U34A],0.02
5,GGAAGAGCUCAACACAGCGUGGCAACGCGACUGUGGCUAGACUGCC [C3A A26C U28C G30A],0.23
6,GGAAGAGCUCAACACAGCGUGGCAAGGAGGCUGUGGCCAGACUGCC [C3A A26G U28A U38C],0.01
7,GGAAGAGCUCAACACAGCGUGGCAAUGUGGCUGUGGGUGGACUGCC [C3A A26U C37G A39G],0.21
8,GGAAGAGCUCAACACAGCGUGGCAAUGUGACUGUGUCUAAACUGCC [C3A A26U G30A G36U G40A],0.06
9,GGAAGAGCUCAACACAGCGUGGCAAUGUGGCUGUGGCUAAACUGCC [C3A A26U G40A],0.15
10,GGAAGAGCUCAACACAGCGUGGCAAAGUGGCUGUGGCUCGACUACC [C3A A39C G44A],0.13
11,GGAAGAGCUCAACACAGCGUGGCAAAGUGGCUGUGGCUGGAGUGCC [C3A A39G C42G],0.02
12,GGAAGAGCUCAACACAGCGUGGCAAAGUGGCUGUGGCUGGACUGUU [C3A A39G C45U C46U],0.16
13,GGAAGAGCUCAACACAGCGUGGCAAAGUGGCUGUGGCUAGCCUGGC [C3A A41C C45G],0.06
14,GGAAGAGCUCAACACAGCGUGGCAAAGUGGCUGUGGCUAGUCUGCU [C3A A41U C46U],0.2
15,GGAAGAGAUCGACACAGCGUGGCAAAAUGGCUGUGGCUAGACUGCC [C3A C8A A11G G27A],0.05
16,GGAAGAGAUCAACGCAGAGUGGCAAAGUGGCUGCGGCUAGACUGCC [C3A C8A A14G C18A U34C],0.33
17,GGAAGAGAUCAACACCGCGUGGCAAAGUGGCUGUGGCUUGACUGCC [C3A C8A A16C A39U],0.53
18,GGAAGAGAUCAACACAGCGUGGCAAGGUGGCGGUGGCUGGACUGCC [C3A C8A A26G U32G A39G],0.36
19,GGAAGAGAUCAACAGAGCGUGGCAAAGUGGCUGUAGCUAGACUGCC [C3A C8A C15G G35A],0.35

row,Variant,self-cleavage
1,GGAAGAGAUCAACAUAGCGUGGCAAAGAUGCUGUGGCUACACUGCC [C3A C8A C15U U28A G29U G40C],0.43
2,GGAAGAGAUCAACACAGCGUGGCAAAGUGGCUGUGGAUAGACUGCC [C3A C8A C37A],0.29
3,GGAAGAGAUCAACACAGCGUGACAAAAUGGCCGUGGUUAGACUGCC [C3A C8A G22A G27A U32C C37U],0.31
4,GGAAGAGAGCAACACAGCGUGGCAAUGUGACUGUGGCUAGGCUGCC [C3A C8A U9G A26U G30A A41G],0.46
5,GGAAGAGGUCAGCGCAGCGUGGCAAAGUGGCUGUGGCUAGACUGCC [C3A C8G A12G A14G],0.04
6,GGAAGAGGUCAACGCAGCGUGGCAAAGUGGCUGUGGCUAGACUGCC [C3A C8G A14G],1.51
7,GGAAGAGGUCAACACAGCGUGGCACAGUGGCUGAGGCUAGACUGCC [C3A C8G A25C U34A],0.02
8,GGAAGAGGUCAACACAGCGUGGCAACGUGGCUGUGGCUAUACUGUC [C3A C8G A26C G40U C45U],0.02
9,GGAAGAGGUCAACACAGCGUGGCAAAGUGGCUGUGGCUAGGCUGCC [C3A C8G A41G],0.14
10,GGAAGAGGUCAACACAGCGUGGCAAAAUGGCUGUGGCUAGACUGCC [C3A C8G G27A],0.26
11,GGAAGAGGUCAACACAGCGUGGCAAAGUUGCUGUGGCGAGACAGCC [C3A C8G G29U U38G U43A],0.92
12,GGAAGAGGUCAACACAGCGUGGCAAAGUGGCUGUGACUAGACUGCC [C3A C8G G36A],0.03
13,GGAAGAGGUCAACACAGCGAGGUAAAGUGGCUGUGGCUAGACUGCC [C3A C8G U20A C23U],0.19
14,GGAAGAGGUCAACACAGCGUGGCAAAGUGGCGGUGGCUAGACUGCC [C3A C8G U32G],0.17
15,GGAAGAGGUCAACACAGCGUGGCAAAGUGGCUGCGGCUAGACUGCC [C3A C8G U34C],0.06
16,GGAAGAGUUCGACACAGCGUGGCAAAGUGGCAGUGGCUAGACUGCC [C3A C8U A11G U32A],0.02
17,GGAAGAGUUCAGCACAGCGUGGCAAAGUGGCUGUGGCUAGACUGCC [C3A C8U A12G],0.92
18,GGAAGAGUUCAACGAAGAGUGGCAAAGUGGCUGUGGCUAGACUGCC [C3A C8U A14G C15A C18A],0.37
